For test [1], the target named is GDF-8 (Homo sapiens, UniProt O14793). Put plainly: TGFβ-reporter HEK293 cell-based assay: GDF-8 neutralization. The following applies: TGFβ-reporter HEK293 cells, ligand 0.3 nM. As to the method: Potency testing by neutralization on cell-based assays. Characterization of the activin A, activin B, GDF-8, and GDF-11 inhibition potency (IC50) of the fusion proteins was performed using a cell-based reporter assay. TGFβ-reporter HEK293 cells were obtained from InvivoGen (San Diego, CA, cat. no. hkb-tgfb) and were maintained following the manufacturer's instructions. Briefly, cells were grown in high-glucose DMEM, containing 10% heat-inactivated FBS, 30 μg/mL blasticidin, 250 μg/mL hygromycin B, and 100 μg/mL zeocin (hereafter, “growth medium”). Once the cells reached 70-80% confluence, they were detached in growth medium by gently tapping on the flask. For all assays, cells were seeded in 96-well plates at a density of 20,000 cells per well in growth medium. Cells were left to attach for 10 minutes at room temperature (RT) prior to being transferred to a 37° C. incubator (5% CO2) overnight. The next day, treatments were prepared by combining the appropriate concentration of agent with activin A, activin B, GDF-8, or GDF-11 for 30 min at RT (shaking at 150 rpm). Treatments were conducted in high-glucose DMEM (serum-free and with no selection agents), and the final concentration of cytokine (ligand) was 0.3 nM. Growth medium was removed from the culture plates, and cells were treated with the appropriate mixes of fusion protein and cytokine. Treatment duration was for 18-22 h at 37° C. (5% CO2). All treatments were performed in technical duplicates and at least one or two independent experiments were conducted for each cytokine. At the end of the treatment period, supernatants were transferred to a new plate, and centrifuged at 300 RPM for 3 min. Forty microlitres of supernatant from each condition was transferred to a new plate, into which 180 μL of Quanti-Blue reagent (InvivoGen, cat. no. rep-qbs) was added. Quanti-Blue reagent was prepared following the manufacturer's instructions. Samples were incubated for 45 min at 37° C. At the end of the incubation, absorbance was read at 650 nm. […]

In test [2] the target is GDF-11 (Homo sapiens, UniProt O95390). Put plainly: TGFβ-reporter HEK293 cell-based assay: GDF-11 neutralization. The settings on record: TGFβ-reporter HEK293 cells, ligand 0.3 nM. As to the method:
Potency testing by neutralization on cell-based assays. Characterization of the activin A, activin B, GDF-8, and GDF-11 inhibition potency (IC50) of the fusion proteins was performed using a cell-based reporter assay. TGFβ-reporter HEK293 cells were obtained from InvivoGen (San Diego, CA, cat. no. hkb-tgfb) and were maintained following the manufacturer's instructions. Briefly, cells were grown in high-glucose DMEM, containing 10% heat-inactivated FBS, 30 μg/mL blasticidin, 250 μg/mL hygromycin B, and 100 μg/mL zeocin (hereafter, “growth medium”). Once the cells reached 70-80% confluence, they were detached in growth medium by gently tapping on the flask. For all assays, cells were seeded in 96-well plates at a density of 20,000 cells per well in growth medium. Cells were left to attach for 10 minutes at room temperature (RT) prior to being transferred to a 37° C. incubator (5% CO2) overnight. The next day, treatments were prepared by combining the appropriate concentration of agent with activin A, activin B, GDF-8, or GDF-11 for 30 min at RT (shaking at 150 rpm). Treatments were conducted in high-glucose DMEM (serum-free and with no selection agents), and the final concentration of cytokine (ligand) was 0.3 nM. Growth medium was removed from the culture plates, and cells were treated with the appropriate mixes of fusion protein and cytokine. Treatment duration was for 18-22 h at 37° C. (5% CO2). All treatments were performed in technical duplicates and at least one or two independent experiments were conducted for each cytokine. At the end of the treatment period, supernatants were transferred to a new plate, and centrifuged at 300 RPM for 3 min. Forty microlitres of supernatant from each condition was transferred to a new plate, into which 180 μL of Quanti-Blue reagent (InvivoGen, cat. no. rep-qbs) was added. Quanti-Blue reagent was prepared following the manufacturer's instructions. Samples were incubated for 45 min at 37° C. At the end of the incubation, absorbance was read at 650 nm. The data were plotted in GraphPad Prism, which was used to calculate IC50 values as a non-linear regression.

Test [3] concerns the target T1, recombinant human activin A (human, UniProt P08476 311-426).
T1 sequence (looked up): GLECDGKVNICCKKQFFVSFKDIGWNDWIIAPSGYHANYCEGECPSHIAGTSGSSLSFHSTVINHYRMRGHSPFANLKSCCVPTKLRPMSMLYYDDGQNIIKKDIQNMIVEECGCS
Put plainly: cell-based or functional assay.

The target in a further test is T2, BMP-10 (UniProt O95393 317-424).
T2 sequence (looked up): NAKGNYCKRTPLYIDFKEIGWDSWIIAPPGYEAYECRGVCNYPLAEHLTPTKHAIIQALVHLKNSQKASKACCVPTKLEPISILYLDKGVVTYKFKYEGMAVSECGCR
Put plainly: cell-based or functional assay.

The next test deals with T3, activin B (UniProt P09529 293-407).
T3 sequence (looked up): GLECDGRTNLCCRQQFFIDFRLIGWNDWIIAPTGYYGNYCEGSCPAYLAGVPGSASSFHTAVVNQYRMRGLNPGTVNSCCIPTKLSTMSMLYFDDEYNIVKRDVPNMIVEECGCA
Put plainly: cell-based or functional assay.

In test [4] the target is GDF-8 (UniProt O14793 267-375). Briefly: cell-based or functional assay.
Another test has as its target T4, BMP-9 (UniProt Q9UK05 320-429).
T4 sequence (looked up): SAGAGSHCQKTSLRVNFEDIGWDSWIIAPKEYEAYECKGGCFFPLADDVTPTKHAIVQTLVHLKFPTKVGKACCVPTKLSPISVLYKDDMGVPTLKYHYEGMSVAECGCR
Put plainly: cell-based or functional assay.

Test [5] has as its target GDF-11 (UniProt O95390 299-407). Put plainly: cell-based or functional assay.

GDF-11, sequence (O95390 299-407): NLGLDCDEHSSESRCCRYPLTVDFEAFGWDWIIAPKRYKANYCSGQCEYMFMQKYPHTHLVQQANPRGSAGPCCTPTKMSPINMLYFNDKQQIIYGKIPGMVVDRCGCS

B1: P1407: hActRIIB L14D, L33W, 19 aa linker, IgG1-DL Fc; SEQ ID 246 (protein)
chain: ETRECIYYNANWEDERTNQSGLERCEGEQDKRWHCYASWRNSSGTIELVKKGCWLDDFNCYDRQECVATEENPQVYFCCCEGNFCNERFTHLPEAGGPEVTYEPPPTGGGGSGGGGSGGGGSGG[human IgG1 Fc and a few adjoining residues not spelt out]
In the case of B1, the figures for the IC50 in the test with GDF-8 [1] and with GDF-11 [2] were 0.48 nM and 0.39 nM, respectively.

B2: P753 (Fc fusion)
chain: ETRECIYYNANWELERTNQSGLERCEGEQDKRLHCYASWRNSSGTIELVKKGCWLDDFNCYDRQECVAHEENPQVYFCCCEGNFCNERFTHLPEAGGPEVTYEPPPTGGGGSGGGGSGG[human IgG1 Fc and a few adjoining residues not spelt out]
Take B2: the Activin A IC50; TGFβ-reporter HEK293 cells in test [3] stood at 1.6 nM. Further, the BMP-10 IC50; BMP-reporter HepG2 cells with BMP-10 stood at 2.9 nM. Besides, the Activin B IC50; TGFβ-reporter HEK293 cells in the test with activin B is 2.4 nM. The GDF-8 IC50; TGFβ-reporter HEK293 cells with GDF-8 [4] was determined as 1.4 nM. Also, the BMP-9 IC50; BMP-reporter HepG2 cells with BMP-9 turned out to be 2.1 nM. In the test with GDF-11 [5], this molecule yielded a GDF-11 IC50; TGFβ-reporter HEK293 cells of 1.5 nM.

B3: P739 (Fc fusion)
chain: ETRECIYYNANWELERTNQSGLERCEEEQDKRLHCYASWRNSSGTIELVKKGCWLDDFNCYDRQECVATEENPQVYFCCCEGNFCNERFTHLPEAGGPEVTYEPPPTGGGGSGGGGSGG[human IgG1 Fc and a few adjoining residues not spelt out]
With B3, the Activin A IC50; TGFβ-reporter HEK293 cells in test [3] amounted to 3.5 nM. For the same molecule, in the test with BMP-10, the BMP-10 IC50; BMP-reporter HepG2 cells worked out at 4 nM. Besides, the Activin B IC50; TGFβ-reporter HEK293 cells in the test with activin B came out at 6 nM. In the test with GDF-8 [4], the GDF-8 IC50; TGFβ-reporter HEK293 cells was 2 nM. The same molecule came in with a BMP-9 IC50; BMP-reporter HepG2 cells with BMP-9 of 1.1 nM. The molecule further came in with a GDF-11 IC50; TGFβ-reporter HEK293 cells in the test with GDF-11 [5] of 2.1 nM.

Values taken from patent US20260193317A1, “COMBINATION THERAPY WITH ACTRIIB RECEPTOR VARIANTS AND GLP-1 AGONISTS” (35PHARMA Inc., priority 2023, published 2026).
